Data reported in article PMC4336329 (PLoS ONE, 2015).
Screen size: about 310,000 compounds; about 2,200 (0.71%) showed an effect of 50% or more. Effects have a minus sign here. The list shows a part of the results.

These molecules were tested against human ether-à-go-go-related gene (hERG) potassium channel (human, UniProt Q12809) (assay: primary screen, population patch clamp on CHO cells stably expressing hERG).
Sequence of human ether-à-go-go-related gene (hERG) potassium channel (Q12809 whole entry, looked up): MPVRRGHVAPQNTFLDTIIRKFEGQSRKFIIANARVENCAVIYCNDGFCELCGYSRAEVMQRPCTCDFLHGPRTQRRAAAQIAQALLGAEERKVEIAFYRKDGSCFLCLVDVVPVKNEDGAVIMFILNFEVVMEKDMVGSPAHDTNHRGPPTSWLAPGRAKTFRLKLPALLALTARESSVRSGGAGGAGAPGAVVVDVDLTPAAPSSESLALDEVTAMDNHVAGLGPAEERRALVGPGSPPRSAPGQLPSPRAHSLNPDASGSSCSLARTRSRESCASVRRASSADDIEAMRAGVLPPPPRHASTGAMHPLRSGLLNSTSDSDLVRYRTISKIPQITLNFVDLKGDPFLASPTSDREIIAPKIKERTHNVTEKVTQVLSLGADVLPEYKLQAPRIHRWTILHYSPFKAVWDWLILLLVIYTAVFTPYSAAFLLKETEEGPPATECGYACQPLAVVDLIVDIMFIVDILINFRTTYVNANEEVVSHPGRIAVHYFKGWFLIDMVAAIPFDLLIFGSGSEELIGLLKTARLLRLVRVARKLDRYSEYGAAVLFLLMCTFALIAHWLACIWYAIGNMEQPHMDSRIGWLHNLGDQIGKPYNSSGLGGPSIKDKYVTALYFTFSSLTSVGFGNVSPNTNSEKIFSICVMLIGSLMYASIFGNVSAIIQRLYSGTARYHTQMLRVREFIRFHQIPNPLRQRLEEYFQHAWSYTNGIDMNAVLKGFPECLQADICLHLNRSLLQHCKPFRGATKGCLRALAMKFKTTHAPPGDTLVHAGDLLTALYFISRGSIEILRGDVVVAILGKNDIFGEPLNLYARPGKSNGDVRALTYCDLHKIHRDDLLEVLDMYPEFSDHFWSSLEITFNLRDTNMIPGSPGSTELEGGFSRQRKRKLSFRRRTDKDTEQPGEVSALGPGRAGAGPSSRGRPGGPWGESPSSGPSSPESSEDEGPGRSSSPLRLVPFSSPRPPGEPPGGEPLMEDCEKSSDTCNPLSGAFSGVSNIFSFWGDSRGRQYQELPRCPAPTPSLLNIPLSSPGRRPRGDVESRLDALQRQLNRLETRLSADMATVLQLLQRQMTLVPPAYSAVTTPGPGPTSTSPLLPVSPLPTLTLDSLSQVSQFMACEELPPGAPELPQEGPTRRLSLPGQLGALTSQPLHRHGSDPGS

| SMILES | hERG current change (%, negative = inhibition) at 1uM |
| --- | --- |
| COc1ccc(/C=C\c2onc(C)c2S(=O)(=O)N2CCC(C(=O)NCCC(C)C)CC2)cc1 | -2.49% |
| Cn1c(=O)c2c(ncn2CC(=O)Nc2nc(-c3ccc(F)c(F)c3)cs2)n(C)c1=O | 8.32% |
| CCOc1ccc(NC(=O)c2cccnc2Cl)c([N+](=O)[O-])c1 | 3.71% |
| C#CCOCCOCCOCCNc1nc(N2CCN(C(=O)[C@H]([C@@H](C)CC)n3cc([C@@H](N)CO)nn3)CC2)nc(N2CCN(C(=O)[C@H]([C@@H](C)CC)n3cc([C@@H](N)Cc4ccc(O)cc4)nn3)CC2)n1.Cl | 7.95% |
| COc1ccc(/C=N/Nc2ncccc2[N+](=O)[O-])c(OC)c1 | 9.88% |
| Cc1ccc(-c2nn3c(C)nnc3s2)cc1NC(=O)CSc1ccc(Cl)cc1 | 7.83% |
| CCC1CCc2c(sc3ncnc(N4CCOCC4)c23)C1 (stereo not drawn) | 1.5% |
| COc1ccc(CCNc2ccncn2)cc1.Cl | 7.44% |
| O=C(CSc1nnc(COc2ccc(Cl)cc2)o1)N1CCCC1 | 2.66% |
| O=C(/C=C/c1ccccc1)N1CCN(c2c(Cl)cccc2[N+](=O)[O-])CC1 | 1.18% |
| CCOC(=O)N1CCN(C(=O)C2CCCN(S(=O)(=O)c3ccc(OCC)cc3)C2)CC1 (stereo not drawn) | 2.25% |
| COC(=O)c1cn(C(=O)c2ccco2)c2ccccc12 | 8.62% |
| O=C1CCN(S(=O)(=O)c2ccccc2)CCN1CCOCc1ccccc1 | 8.85% |
| CC1(C(=O)NC2CCCCC2)CCC(=O)N1Cc1ccc2c(c1)OCO2 (stereo not drawn) | 6.04% |
| CCCCN1C(=O)C(O)(CC(=O)c2c(C)coc2C)c2ccccc21 (stereo not drawn) | -4.55% |
| COc1ccccc1C/C(N)=N/OC(=O)/C=C/c1ccccc1 | 10.9% |
| CN1CC2([N+](=O)[O-])CC=C(Cl)C([N+](=O)[O-])(C1)C2 (stereo not drawn) | 6.24% |
| FC(F)(F)c1cc(-c2ccccc2)nc2nc(N3CCOCC3)sc12 | 5.51% |
| COc1ccc(Cn2ccnc2SCC(=O)Nc2cccc(NC(C)=O)c2)cc1 | 10.8% |
| CCOC(=O)c1c(NC(=O)COC(=O)/C=C/c2ccccc2)sc(C(=O)NC)c1C | 10.8% |
| Clc1ccc(OCCNCCc2ccccc2)cc1.O=C(O)C(=O)O | -4.03% |
| Cc1nn(Cc2ccccc2)c(C)c1C(=O)OCC(=O)c1cc(C)n(CC(F)(F)F)c1C | 11.6% |

| SMILES | hERG current change (%, negative = inhibition) at 1uM |
| --- | --- |
| O=C(c1ccccc1)N1CCN(C(=O)c2cccnc2)CC1 | 14% |
| COC(=O)[C@H](C)NC(=O)NCc1ccccc1F | 8.59% |
| N/N=C(\Cc1cscn1)c1ccc(O)cc1O | 12.8% |
| CC(C)c1ccc(-c2nnn(Cc3nc4ccccc4s3)n2)cc1 | 6.89% |
| O=[N+]([O-])c1cccc(/C=N/N2CCN(Cc3ccc(Cl)cc3)CC2)c1 | 10.7% |
| Cc1ccc2cc(C#N)c(N3CCCN(C(=O)C4CCCO4)CC3)nc2c1C (stereo not drawn) | -4.98% |
| Cc1csc(=O)n1CCC(=O)OCC(=O)Nc1ccc(C(N)=O)cc1 | 14.5% |
| CSc1nsc(SCC(=O)N2CCc3ccccc32)n1 | 12.7% |
| CCCCCCOc1ccc(/C=c2\s/c(=C(/C#N)C(=O)NCc3ccco3)n(-c3ccccc3)c2=O)cc1 | 16% |
| CCCCCNC(=O)C(C)Sc1ccc(Cl)cc1 (stereo not drawn) | 14.1% |
| C[N+](C)(C)C(Cc1ccccc1)C(=O)[O-] (stereo not drawn) | 10.7% |
| COc1cnc(-c2ccccc2)nc1Oc1cccc(C)c1C | 6.2% |
| Cc1cccc(C(=O)Oc2ccc(/C=N/NC(=O)c3ccc(O)cc3)cc2)c1 | 19.5% |
| Cc1c(C(=O)NCCCn2ccnc2)oc2ccccc12 | 18.6% |
| Cc1cccc(C)c1OCc1cc(C(=O)N(C)Cc2cc(C3CC3)n[nH]2)no1 | 2.19% |
| COC(=O)c1c(-c2ccccc2OC)sc2ccccc12 | 12.9% |
| Cc1cc(C)c(S(=O)(=O)N2CCC(C(=O)OCc3c(C)noc3C)CC2)c(C)c1 | -5.34% |
| CCCCSc1nc(N)c(C#N)c(-c2cccs2)c1C#N | -2.59% |
| Cc1cccc(C)c1NC(=O)COC(=O)c1ccc([N+](=O)[O-])o1 | 12.3% |
| CCc1nc(SCc2ccc([N+](=O)[O-])cc2)n[nH]1 | -2.87% |
| O=C(Nc1nnc(COc2ccc(F)cc2)s1)c1ccco1 | 12.3% |
| CN(CC1CCCO1)S(=O)(=O)c1ccc(C(=O)Nc2ccc([N+](=O)[O-])cc2)cc1 (stereo not drawn) | -1.46% |

| SMILES | hERG current change (%, negative = inhibition) at 1uM |
| --- | --- |
| N#CCCN(C(=O)COC(=O)Cc1ccc(Br)cc1)c1ccccc1 | 7.87% |
| CN(C)S(=O)(=O)c1ccc(C(=O)NCC(C)(C)CN=C2NS(=O)(=O)c3ccccc32)cc1 | 1.35% |
| COC(=O)c1cccc(NC(=S)Nc2ccccc2Cl)c1 | 5.66% |
| Cc1ccc(OCC(=O)N[C@@H](C)c2nnc3ccccn23)cc1C | 9.22% |
| Cc1nc(-c2ccc(Cl)cc2)sc1C1(C)CC(c2ccncc2)=NO1 (stereo not drawn) | 8.44% |
| CCn1c(SCCN2CCCCC2)nnc1-c1ccc(S(=O)(=O)N2CCOCC2)cc1.O=C(O)C(=O)O | -0.721% |
| Cc1ccc(N(CC(=O)Nc2ccc3c(c2)OCCO3)S(C)(=O)=O)cc1 | 7.74% |
| CCCNC(=O)C12CCC(C)(C(=O)C1Br)C2(C)C (stereo not drawn) | 8.44% |
| CCCc1cc(=O)oc2c(C)c(OC(C)C(=O)NCC(O)c3ccccc3)ccc12 (stereo not drawn) | -0.736% |
| Cc1nnc(NC(=O)c2ccc(F)c(S(=O)(=O)N3CCCCC3)c2)s1 | 9.22% |
| COc1ccc(CNC(=O)Cc2c(C(=O)O)[nH]c3ccccc23)c(OC)c1 | 14% |
| CC(=O)NC(=S)NNC(=O)C(c1ccccc1)c1ccccc1 | 15% |
| CCN(CC)CCCNC(=O)CSc1nc(C)cc(C)n1 | 10.4% |
| CC(C)C[C@H](NC(=O)OC(C)(C)C)C(=O)NCC1CCC(C(=O)N[C@@H](Cc2ccccc2)C(=O)O)CC1 (stereo partly drawn) | 8.23% |
| CCOC(=O)n1c(=O)n(Cc2c(Cl)cccc2Cl)c2ccccc21 | 4.38% |
| CCC(c1nnc(SCC(=O)Nc2cccnc2Cl)n1-c1ccccc1)N(C)C (stereo not drawn) | 10.4% |
| COc1ccc(-c2nc(CS(=O)CC(=O)NC3CCCC3)c(C)o2)cc1 (stereo not drawn) | 3.33% |
| COc1cccc(-c2nc(CS(=O)(=O)CC(=O)N3CCN(C)CC3)c(C)o2)c1 | 7.44% |
| Cc1cc(OCCN2CCOCC2)nc2ccccc12.Cl | 8% |
| CCOC(=O)C1=C(c2ccccc2)Nc2ncnn2C1c1cccc(O)c1 (stereo not drawn) | 9.66% |
| COc1cc(NS(=O)(=O)c2ccc(NC(=S)NC(=O)c3ccco3)cc2)nc(OC)n1 | 4.05% |
| Cc1ccc(CN=c2c([N+](=O)[O-])nn(-c3ccc(Cl)cc3)n2O)cc1 | 11% |

| SMILES | hERG current change (%, negative = inhibition) at 1uM |
| --- | --- |
| CCOC(=O)c1ccc(NC(=O)CCc2nc(-c3ccccc3Cl)no2)cc1 | 17.1% |
| COc1ccccc1S(=O)(=O)N1CCC(C(=O)O)(c2ccccc2)CC1 | 9.27% |
| CSc1ncc(CN2CCN(C3CCCC3)C(CCO)C2)cn1 (stereo not drawn) | 11.4% |
| COc1ccnc(Oc2ccccc2)c1-c1ncn[nH]1 | 14.7% |
| CN(CC(=O)NCc1ccccc1)Cc1ccc(Cl)cc1 | 2.36% |
| CC(c1nc2ccccc2n1Cc1ccccc1)N1CCCCC1 (stereo not drawn) | -26.5% |
| O=C(O)c1ccccc1NCc1cccnc1 | 14% |
| Cc1cccc(C)c1NC(=O)C1CCN(S(C)(=O)=O)CC1 | 10.6% |
| Cc1c(Cl)ccc(S(=O)(=O)N2CCN=C2c2ccccc2)c1Cl | 9.95% |
| CCc1c(-c2ccccc2)nc2sc3c(c2c1N)CCCC3 | 16% |
| Cc1ccc(NC(=O)CCC(=O)NNC(=S)Nc2ccccc2)c(C)c1 | 8.31% |
| COC(=O)COc1ccc(/C=C2\SC(=O)N(CC(=O)Nc3ccccc3F)C2=O)cc1 | 13.9% |
| CCNS(=O)(=O)c1cc(OC)ccc1OC | 13% |
| Cc1cc(NC(=O)OC(C)C)ccc1-c1ccc(NC(=O)OC(C)C)cc1C | 14.8% |
| CCC/C=N/NC(=O)c1[nH]c2c([N+](=O)[O-])cccc2c1C | 10.3% |
| O=C(CC1SC(=O)N(Cc2ccccc2)C1=O)Nc1nccs1 (stereo not drawn) | 4.38% |
| COc1ccccc1Nc1nc(N)nc(CSC(=S)N2CC(C)CC(C)C2)n1 (stereo not drawn) | -0.821% |
| COc1cccc(NC(=O)Nc2nnc(Cc3ccc(F)cc3)s2)c1 | 14.3% |
| COc1ccc(NC(=O)CN2C(=O)COc3ccc(S(=O)(=O)N4CCOCC4)cc32)c(OC)c1 | 12.2% |
| Cc1ccc(C)c(CN2CCC(n3nccc3NC(=O)C3CCCC3)CC2)c1 | -49% |
| Clc1ccc(COc2ccccc2-c2ccnc3ncnn23)cc1 | -8.35% |
